“And” between values parts separate entries of the source, which are not always exact repeats. Equal entries are not always repeated. Screen size: about 410,000 compounds; about 6,400 (1.6%) were called active. The inconclusive results got no clear call from the source; some entries with a clear call stand among them for comparison. Calls follow the shape of the dose curve; as a rule, active = well fitted inhibition curve with a large enough effect; inconclusive = small, poorly fitted or top-dose-only effect; inactive = no such curve, though single readings can be large or run the other way. A potency beside an inconclusive call is a rough fit, not a confirmed value.
Biological target: Glucagon-like peptide 1 receptor (Homo sapiens) (UniProt P43220)
Test: qHTS of GLP-1 Receptor Inverse Agonists (Inhibition Mode); also: nearly all actives have a fitted effect of over 55% in size
Details: HEK293 GLP-1R CRE-luciferase, luminescence, 24 h, GLP-1R form is constitutively active; series mostly up to 38.3 µM
How it was run: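 GLP-1R inverse agonism mode: basal reporter luminescence in engineered HEK293 cells measured after one day of compound exposure at 37 deg C, with a 12 min room-temperature detection step.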
Potency is read from the fitted curve at half-maximal effect; tags tell the direction and shape of the fitted curve.

Sequence of UniProt P43220 (P43220 whole entry, looked up): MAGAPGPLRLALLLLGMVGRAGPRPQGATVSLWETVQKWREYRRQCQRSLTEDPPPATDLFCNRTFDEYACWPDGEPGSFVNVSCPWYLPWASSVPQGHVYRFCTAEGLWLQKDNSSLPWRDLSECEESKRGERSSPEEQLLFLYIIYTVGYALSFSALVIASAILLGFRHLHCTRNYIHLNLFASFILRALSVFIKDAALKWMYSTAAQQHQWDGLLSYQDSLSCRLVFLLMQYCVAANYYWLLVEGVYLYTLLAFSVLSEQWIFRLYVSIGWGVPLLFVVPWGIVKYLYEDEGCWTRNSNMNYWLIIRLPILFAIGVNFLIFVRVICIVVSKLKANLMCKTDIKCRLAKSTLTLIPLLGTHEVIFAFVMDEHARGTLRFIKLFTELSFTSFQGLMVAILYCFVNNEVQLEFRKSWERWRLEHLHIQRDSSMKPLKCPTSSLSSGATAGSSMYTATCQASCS

Potency, active:
COc1ccc(-c2cn3c(C)c(C(=O)N4CCCc5ccccc54)sc3n2)cc1 8.91 µM

Potency, inconclusive:
Cc1ccc(CSCCC(=O)NCCC2=CCCCC2)cc1 28.2 µM [inhibitor, single point], CC(=O)Nc1ccc(S(=O)(=O)NC2CC(=O)N(c3ccc(C)cc3)C2)cc1 (stereo unspecified) 10 µM [inhibitor, single point], CN(Cc1ccc2c(c1)OCO2)C(=O)c1cc(-c2ccccc2)c(N2CCOCC2)s1 10 µM [inhibitor, partial curve, poor fit], O=C(CCS(=O)(=O)c1ccc(Br)cc1)NCCc1ccccc1 10 µM [inhibitor, single point], CC1=C(OC(=O)C(C)(C)C)C(C)(C)C(c2ccccc2)OC1=O (stereo unspecified) 11.2 µM [inhibitor, partial curve], O=C(Cn1c2c(c(-c3ccccc3Cl)cc1=O)CCC2)NCCCN1CCOCC1 15.8 µM [inhibitor, single point], FC(F)(F)c1cc(-c2ccco2)nc(NCCc2ccccc2)n1 14.1 µM [inhibitor, single point], CNC(=O)C1CCN(Cc2cc3ccccc3n2Cc2ccccc2C)CC1 28.2 µM [inhibitor, single point], Cc1occc1-c1nnc(SCC(=O)Nc2ccccc2N2CCCCC2)n1C 10 µM [inhibitor, partial curve, poor fit], CCCN1C(=O)SC(CC(=O)Nc2ccc(Br)cc2)C1=O (stereo unspecified) 11.2 µM [inhibitor, single point], Cn1ncc(Cl)c1C(=O)N1CCN(c2ccc(Cl)c(Cl)c2)CC1 28.2 µM [inhibitor, single point], Cc1ccc(C)c(CN2C(=O)c3ccccc3S(=O)(=O)c3ccc(C(=O)N4CCCC4)cc32)c1 28.2 µM [inhibitor, single point], CCOc1ccc(S(=O)(=O)NCC2(N3CCCCC3)CCCCC2)cc1 11.2 µM [inhibitor, partial curve, poor fit], CCOC(=O)c1cnc2c(C)cccc2c1NCCc1ccc(OC)c(OC)c1 28.2 µM [inhibitor, single point] and 12.6 µM [inhibitor, single point], CC1=C(C(=O)Nc2cccc(C(=O)NC(C)c3ccccc3)c2)SCCO1 (stereo unspecified) 28.2 µM [inhibitor, single point], Cc1cc(NCc2ccc(F)cc2)nc2cc(Cl)ccc12 15.8 µM [inhibitor, single point], COc1ccc2[nH]c(C)c(CCN3C(=O)C4CC=CCC4C3=O)c2c1 (stereo unspecified) 12.6 µM [inhibitor, single point], COc1cc2c(cc1OC)C(C)N(C(=O)[C@@H](NC(=O)c1ccccc1)C(C)C)CC2 (stereo partly specified) 28.2 µM [inhibitor, single point], COc1ccc(N2CC(C)(C)[C@H](CC(=O)Nc3ccc(Br)cc3)C2=O)cc1 22.4 µM [inhibitor, single point], Cc1cc(Cl)c(S(=O)(=O)N2CCN(c3ccc(F)cc3)CC2)cc1OCC(=O)NC1CCCCC1 5.62 µM [inhibitor, partial curve, poor fit], COc1ccc2[nH]c(=O)c(CN(CCCN(C)C)C(=O)Nc3ccccc3)cc2c1 3.16 µM [inhibitor, partial curve, poor fit], FC(F)(F)c1cccc(CNC(=S)Nc2ccccc2)c1 11.2 µM [inhibitor, single point], Cc1ccc(C(=O)/C=C/Nc2ccccc2C(N)=O)cc1 14.1 µM [inhibitor, single point], CC(=O)c1sc(N/N=C2\CC3CC2C(C)C3(C)C)nc1C (stereo unspecified) 2.51 µM [inhibitor, full curve, poor fit], COc1ccc(OC)c(NC(=O)C2(C)CCN2CCOc2ccccc2)c1 (stereo unspecified) 10 µM [inhibitor, partial curve, poor fit], COc1cc(C(=O)NCCc2c[nH]c3ccccc23)ccc1OCc1c(C)noc1C 14.1 µM [inhibitor, single point], CS(=O)(=O)N1CCC(C(=O)N2CCC(Cc3ccccc3)CC2)CC1 0.501 µM [inhibitor, full curve, poor fit], COc1ccc(C(=O)N/N=C\c2coc3ccc(Cl)cc3c2=O)cc1 15.8 µM [inhibitor, partial curve, poor fit], Cc1ccc(S(=O)(=O)N2C[C@H]3C(=O)C[C@@H](c4ccccc4)N(S(=O)(=O)c4ccc(C)cc4)[C@H]3C[C@H]2c2cccs2)cc1 3.16 µM [inhibitor, full curve]

Potency, inactive:
COc1cccc2c1nc(C)c1cc(C)oc12, CCC1CN(C(=O)N2CCC(C(=O)NCCc3ccc(C)cc3)CC2)c2ccccc2O1 (stereo unspecified), COc1ccc(-c2oc3ncnc(NCCCN4CCOCC4)c3c2-c2ccc(OC)cc2)cc1, Cc1[nH]n(-c2ccccc2)c(=O)c1/C=N/n1c(C)nc2ccccc2c1=O, Cc1ccc(-c2cn3c(n2)sc2cc(C(=O)NCc4cccs4)ccc23)cc1, CCc1sc(Nc2ccc(C)cc2Br)nc1-c1cc2cccc(OC)c2oc1=O, O=C(C[C@H]1C/C=C\CC[C@@H](Cc2ccc(F)cc2)C(=O)OC[C@H]2CCCN2C1=O)N[C@H](CO)Cc1ccccc1, Cc1c(N=NC2=C(O)CCCC2=O)c(=O)n(-c2ccccc2)n1C, CCOc1ccc(OCC)c(NC(=O)C(NS(=O)(=O)c2ccc(Br)s2)c2ccccc2)c1 (stereo unspecified), COc1ccc(NC(=O)CSc2nc(O)cc(=O)n2-c2ccc(OC)cc2)cc1, CCCCC(CC(O)COCC(C)C)C(=O)NNC(=S)Nc1ccccc1 (stereo unspecified)

— PubChem BioAssay AID624417 (National Center for Advancing Translational Sciences (NCATS), 2012)
